The source gives no read counts; variants with many changes may rest on few reads.
B1: LINE1-mini (parent)
chain: GGCAGAGCUCAACACAGCGUGGCAAAGUGGCUGUGGCUAGACUGCC

Variants of: B1
Test: self-cleavage, relative activity (ratio to wild type); higher = more cleavage; in vitro, sequencing; the parent is a self-cleaving ribozyme

| Variant | self-cleavage |
| --- | --- |
| C3U C10A G22C A41G | 0.01 |
| C3U C10A A12U C15A C18U C45A | 0.02 |
| C3U A6U C8U U43A | 0.24 |
| C3U A16C C31U C37U U43A C46U | 0.05 |
| C3U A16C G17A A26C U28A G35C | 0.06 |
| C3U A4U G5A C10U A16U G21C A25C G27A | 0.04 |
| C3U A6C A11U C15U G35U G36U C42A | 0.01 |
| C3U A6U C31A | 0.16 |
| C3U C18A A26U C45U | 0.17 |
| C3U A14C G30C | 0.13 |
| C3U C15A C23A G27A G40U G44C | 0.02 |
| C3U A26C G36C A39C | 0.02 |
| C3U C8A U34A | 0.33 |
| C3U C10A C46U | 0.02 |
| C3U A4G G19U U38G | 0.03 |
| C3U C10U A14C G30A C42U C45G | 0.04 |
| C3U A12U G36A U43A C45U | 0.09 |
| C3U A4G U20C | 0.05 |
| C3U A6U U34G G35U | 0.09 |
| C3U A16U C23A | 0.12 |
| C3U A11C U43A | 0.02 |
| C3U A6G A12U C13A A16G G19A C42A C45A | 0 |
| C3U A4G A6G U34C | 0.12 |
| C3U A16U U20A G33A C37A | 0.03 |

| Variant | self-cleavage |
| --- | --- |
| C3U C18A C31A C46G | 0.02 |
| C3G U9G A14G A16U G40A A41C U43G G44A | 0.01 |
| C3U A16C U34A C37A U38G | 0.02 |
| C3U C13A G19A | 0.16 |
| C3U C8A G27U | 0.49 |
| C3U C13G A14G C18G G19C A39G G40A C45U | 0.05 |
| C3U A4G G19C A26C G29U A41U C45U | 0.04 |
| C3G U9G G19U U43C | 0.04 |
| C3U C13G U28A G30U | 0.07 |
| C3U C8U U34A | 0.12 |
| C3U A11G C23G | 0.04 |
| C3U A26C G27A C42U G44A | 0.29 |
| C3U C18U G30U | 0.55 |
| C3U C10A A11G A12U G44C | 0.04 |
| C3U A6U A26C U38C A41C C45G | 0.2 |
| C3U C13G A24U U32A | 0.06 |
| C3U A12G G44U C46U | 0.01 |
| C3U C8G C10U A24U A26G | 0.15 |
| C3U C8G C18G G22A | 0.05 |
| C3U A12C C23U | 0.03 |
| C3U A4G C15U G17U U28A G29U | 0.1 |
| C3U C18G U38G | 0.01 |
| C3U A14U C18A C37A | 0.01 |
| C3U A4G U9C G17C C18G G22A C31A U34A C46U | 0.01 |

| Variant | self-cleavage |
| --- | --- |
| C3U C10U C31U | 0.05 |
| C3U C8U C10U | 0.14 |
| C3U A4C G5U | 0.18 |
| C3U A12U C13A G36C | 0.21 |
| C3U A6C C23U A39U | 0.42 |
| C3U A4C C15G A16G U20A G21A G36C | 0.14 |
| C3U A6U A12C G29C | 0.02 |
| C3U A25C U32C A39G | 0.06 |
| C3U A12G C13A C15A G19C A41G C45A | 0.07 |
| C3U A4C A16C G30C C37G U38C | 0.06 |
| C3U A24U A39G C46G | 0.22 |
| C3U C8U A12G A39U C45G | 0.02 |
| C3G U28A U34A G36U C45G | 0.21 |
| C3U C8G U32C U34A | 0.09 |
| C3U C8G A12C A25G | 0.03 |
| C3U A6G A16U A26G C45G | 0.2 |
| C3U A4U C23A A26U | 0.16 |
| C3U A12G A25G G40C | 0.12 |
| C3G U9G G19C A39G | 0.03 |
| C3U A11U A12U U38G | 0 |
| C3U C8G C23U A25U | 0.06 |
| C3U C8A G40C | 0.08 |
| C3U A14U C15A G29U | 0.23 |
| C3U C10A A12U U34A G36U | 0.02 |

| Variant | self-cleavage |
| --- | --- |
| C3U C8U A11U | 0.05 |
| C3U A6U G21U | 0.99 |
| C3U C10A C13G G27U G33U | 0.01 |
| C3U A12G U38C | 0.06 |
| C3U C15G A25U G44A | 0.01 |
| C3U C18U A25G C42A | 0.03 |
| C3U A4G C23G G29C | 0.02 |
| C3U C18G G36C C46G | 0.04 |
| C3U A24U G29U C42U C46U | 0.04 |
| C3U C10A U34C C45A | 0.01 |
| C3U A26G C42U | 0.09 |
| C3U A14G C23A U32C C42A | 0.06 |
| C3U A26U U34G U38A | 0.02 |
| C3U C18A U32G | 0.02 |
| C3U C15U G21U | 0.27 |
| C3U C8A G21U G27A A39G | 0.03 |
| C3U C13A U28C | 0.04 |
| C3U C8A U9C | 0.09 |
| C3U A4G G19A A24U A41C U43C | 0.05 |
| C3U A6U A25C G36C C45A | 0.02 |
| C3U C13G G40U | 0.04 |
| C3G U43C C45A | 0.06 |
| C3U A4U C18G G21U | 0.04 |
| C3U A25U U32C | 0.26 |

| Variant | self-cleavage |
| --- | --- |
| C3U C8A C13U C18A | 0.29 |
| C3U A25C G35C C45U | 0.07 |
| C3U A11G G19U G33U | 0.01 |
| C3U A6G G21U U32A G40A C46G | 0.06 |
| C3U C10G A41C | 0.03 |
| C3G U20G G33C U38C | 0.04 |
| C3U A6U C42A G44U | 0.15 |
| C3U A11C A16U | 0.02 |
| C3U C10G C15A | 0.05 |
| C3U A6C C13G G17U U32C | 0.23 |
| C3U A12U G21A A24C U28G | 0.37 |
| C3U C13G G21C C37U U38C | 0.33 |
| C3U C10G C13G | 0.04 |
| C3U C23G A25U G27A U43G C45G | 0.03 |
| C3U C15U C23U | 0.32 |
| C3U A4C A26C | 0.13 |
| C3U C8A U20G | 0.16 |
| C3U C23A C42A | 0.14 |
| C3U A16U C23U G44U | 0.04 |
| C3U A11C U20A | 0.02 |
| C3U A16G G33C A41G | 0.12 |
| C3U A16G G29C | 0.07 |
| C3U A6U U38G | 0 |
| C3G U32C G44U | 0.09 |

| Variant | self-cleavage |
| --- | --- |
| C3U A11C C23U G33A | 0.03 |
| C3U A6C G7U C13A U20G G21U A24U | 0.03 |
| C3U C10A G27A G33U C46A | 0.41 |
| C3U C18A U32C C42G | 0.06 |
| C3U A6G G19A | 0.09 |
| C3U A16U A24C | 0.03 |
| C3U A24G G27A G36C | 0.16 |
| C3U A6G U20A G22A | 0.04 |
| C3U C10A C13G G22A C46A | 0.05 |
| C3U C8A G27A C31U C37U G40C | 0.46 |
| C3U A39C C46U | 0.07 |
| C3U A12U C31A G40A | 0 |
| C3U A4G G7C C18A U28G G30C G33A | 0.02 |
| C3U A4U A6C C10A | 0.05 |
| C3U A4U C10A | 0.03 |
| C3U A12G C15G G21A | 0.02 |
| C3G U20C C31A G35U G36U C42G | 0.03 |
| C3U A12U C18G A25U G27C G36U U38G | 0.01 |
| C3U A12C A16G G21U | 0 |
| C3U A26U U38C A39U G44A | 1.8 |
| C3U A12G G40C | 0.02 |
| C3U C23A U28G G33U U38C | 0.02 |
| C3U C13G A39U | 0.05 |
| C3U A6C A16U | 0.34 |

| Variant | self-cleavage |
| --- | --- |
| C3U C13A C15U C23U C37A C42A | 0.89 |
| C3U A6U C18G C23U C45U | 0.07 |
| C3U A25G U43C G44A | 0.13 |
| C3U A4U C23A G40C C42A | 0.16 |
| C3U A6G U34G U43A | 0.09 |
| C3U C15G U34C C37G | 0.06 |
| C3U A11G A24G C46U | 0.03 |
| C3U C10G U20G C42U | 0.02 |
| C3U C10A C45U | 0.06 |
| C3U C18G U32A G36A | 0.03 |
| C3U C13G C37U G40C | 0.14 |
| C3G U34A A39G | 0.03 |
| C3U C15A U38A A39G | 0.04 |
| C3U C10U G19U U28G A39G | 0.02 |
| C3U A4U G17U G40C | 0.02 |
| C3U A11U A12C G22C C46A | 0.05 |
| C3U A11U A16C C23U A25U | 0.01 |
| C3U A16C G30C G40C C46A | 0.04 |
| C3U A12G A39G U43C | 0.05 |
| C3U A4U A11U A12U G21A G22A G33C | 0.02 |
| C3U C10A C15U A16C | 0.03 |
| C3U A4G A16U | 0.02 |
| C3U A4C A12G G19C G30A U34C | 0.01 |

— the RNAGym collection of RNA variant scans (doi:10.7554/elife.90254)
